This note sets out measurements from the supplement of paper PMC7826260.

The list shows a part of the results. Each Rep nickase domain was tested in vitro on the same pool of single strands (3 µM enzyme, 1 h, 37 °C); shown is the middle of each 90-letter strand. Values are log2 of uncut reads against the no-enzyme pool; more negative means more cut, near 0 not cut, and no call is made. The scaling is to total reads, so uncut sequences can rise above 0 when many others are cut.

The assay has as its system T1, Rep nickase domain of tomato golden mosaic virus.
T1 sequence (Rep 1-124, printed without the tag): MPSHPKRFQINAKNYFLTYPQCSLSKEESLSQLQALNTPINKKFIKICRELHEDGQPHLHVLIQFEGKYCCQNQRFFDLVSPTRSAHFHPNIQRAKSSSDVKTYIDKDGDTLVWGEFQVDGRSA
The experiment in a line: uncleaved DNA left, log2 of reads against the no-enzyme library (log2 ratio); higher = less cleavage (more negative = more Rep cleavage of the k-mer); sequences stand for … in CTCGTCCG…ACCGGAGA
As for the experimental part:
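A pool of 90-nt single-stranded DNAs with seven random bases just before the constant AC of the nick site (name = the seven bases) was cut by 3 µM recombinant His6-SUMO-tagged Rep nickase domain (300 nM DNA, 50 mM HEPES pH 8.0, 50 mM NaCl, 1 mM MnCl2, 1 h, 37 °C, three replicates). Uncut DNA was amplified and sequenced.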
Take GGTTAAG: the “uncleaved DNA left (log2)” value turned out to be 0.0773.

On to AGTAAAC, for which the “uncleaved DNA left (log2)” value was determined as 0.0428.

In the case of GGGTGGA, the “uncleaved DNA left (log2)” value was 0.0152.

In the case of TTGCCAA, the “uncleaved DNA left (log2)” value was -0.0889.

Consider CTGAGCA, for which the “uncleaved DNA left (log2)” value is -0.116.

Consider GGCTTGT, for which the “uncleaved DNA left (log2)” value came out at 0.163.

With CCGGAAT, the “uncleaved DNA left (log2)” value amounted to 0.147.

As to TGATTCA, the “uncleaved DNA left (log2)” value worked out at 0.168.

Take AAGACCT: the “uncleaved DNA left (log2)” value was -0.0992.

Regarding CTTGCTT, the “uncleaved DNA left (log2)” value was -0.164.

With GTGGGTG, the “uncleaved DNA left (log2)” value is -0.0788.

For the sequence TATGACG, the “uncleaved DNA left (log2)” value is -0.2.

For the sequence GGATTTA, the “uncleaved DNA left (log2)” value worked out at 0.0886.

For CATACCC, the “uncleaved DNA left (log2)” value was -0.0657.

As for AAGGTAA, the “uncleaved DNA left (log2)” value was 0.158.

For the sequence GACTTTA, the “uncleaved DNA left (log2)” value was 0.148.

On to TTTATCG, for which the “uncleaved DNA left (log2)” value was -0.134.

Consider CGGATTA, for which the “uncleaved DNA left (log2)” value was determined as 0.00214.

Consider GATGAAG, for which the “uncleaved DNA left (log2)” value came out at 0.125.

In the case of TAAGTGG, the “uncleaved DNA left (log2)” value worked out at 0.0297.

ATAGGAC: the “uncleaved DNA left (log2)” value was 0.104.

Take CGAAAGC: the “uncleaved DNA left (log2)” value came to 0.0992.

Turning to ATTTGTA, the “uncleaved DNA left (log2)” value was -0.122.

GCTATTA: the “uncleaved DNA left (log2)” value was determined as 0.0188.

Turning to ACATTCG, the “uncleaved DNA left (log2)” value was -0.0186.

As to TGTCGGT, the “uncleaved DNA left (log2)” value was 0.0836.

Regarding TTGCGGT, the “uncleaved DNA left (log2)” value was 0.0851.

For TATCCAA, the “uncleaved DNA left (log2)” value is -0.00456.

For the sequence TAATGAA, the “uncleaved DNA left (log2)” value is -0.714.

For the sequence AAACCCT, the “uncleaved DNA left (log2)” value is -0.135.

Take TACCAGG: the “uncleaved DNA left (log2)” value is -0.00898.

Consider AAAAATC, for which the “uncleaved DNA left (log2)” value was -0.0271.

GTCCCGC: the “uncleaved DNA left (log2)” value amounted to 0.0945.

For the sequence TCGTATG, the “uncleaved DNA left (log2)” value is 0.194.

With GGATTAG, the “uncleaved DNA left (log2)” value turned out to be 0.0185.

As for CGGTAGC, the “uncleaved DNA left (log2)” value is -0.0872.

Turning to CTCCGTT, the “uncleaved DNA left (log2)” value was -0.00576.

ATTGAGA: the “uncleaved DNA left (log2)” value was determined as 0.0413.

Regarding GAGCGCG, the “uncleaved DNA left (log2)” value was -0.0681.

Regarding TGTACGT, the “uncleaved DNA left (log2)” value was -0.0891.
